The results in this text go back to PMC1266353.

Chains of the proteins cited; added tags and fusions are not shown. Residues count along the entry.
UniProt P33176, residues 265-639: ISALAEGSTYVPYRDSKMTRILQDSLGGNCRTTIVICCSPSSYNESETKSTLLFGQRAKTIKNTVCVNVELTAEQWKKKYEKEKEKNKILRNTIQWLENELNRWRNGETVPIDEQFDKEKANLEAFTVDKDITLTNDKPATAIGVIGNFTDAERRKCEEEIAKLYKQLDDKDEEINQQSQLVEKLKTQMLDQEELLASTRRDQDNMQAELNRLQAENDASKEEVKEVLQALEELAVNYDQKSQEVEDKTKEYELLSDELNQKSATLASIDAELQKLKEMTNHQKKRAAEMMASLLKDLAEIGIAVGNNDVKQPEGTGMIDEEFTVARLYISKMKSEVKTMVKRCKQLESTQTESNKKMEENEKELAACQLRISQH
UniProt P62993: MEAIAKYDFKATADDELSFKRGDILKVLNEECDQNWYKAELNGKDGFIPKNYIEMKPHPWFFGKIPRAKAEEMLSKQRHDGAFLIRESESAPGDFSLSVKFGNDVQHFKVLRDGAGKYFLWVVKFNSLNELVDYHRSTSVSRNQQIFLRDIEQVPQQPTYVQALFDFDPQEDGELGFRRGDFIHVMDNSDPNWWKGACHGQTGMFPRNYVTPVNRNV

The target of assay [1] is T1, KIF1B (construct of the experiments with KBP fragments, data not shown) (human) (UniProt O60333).
T1 sequence: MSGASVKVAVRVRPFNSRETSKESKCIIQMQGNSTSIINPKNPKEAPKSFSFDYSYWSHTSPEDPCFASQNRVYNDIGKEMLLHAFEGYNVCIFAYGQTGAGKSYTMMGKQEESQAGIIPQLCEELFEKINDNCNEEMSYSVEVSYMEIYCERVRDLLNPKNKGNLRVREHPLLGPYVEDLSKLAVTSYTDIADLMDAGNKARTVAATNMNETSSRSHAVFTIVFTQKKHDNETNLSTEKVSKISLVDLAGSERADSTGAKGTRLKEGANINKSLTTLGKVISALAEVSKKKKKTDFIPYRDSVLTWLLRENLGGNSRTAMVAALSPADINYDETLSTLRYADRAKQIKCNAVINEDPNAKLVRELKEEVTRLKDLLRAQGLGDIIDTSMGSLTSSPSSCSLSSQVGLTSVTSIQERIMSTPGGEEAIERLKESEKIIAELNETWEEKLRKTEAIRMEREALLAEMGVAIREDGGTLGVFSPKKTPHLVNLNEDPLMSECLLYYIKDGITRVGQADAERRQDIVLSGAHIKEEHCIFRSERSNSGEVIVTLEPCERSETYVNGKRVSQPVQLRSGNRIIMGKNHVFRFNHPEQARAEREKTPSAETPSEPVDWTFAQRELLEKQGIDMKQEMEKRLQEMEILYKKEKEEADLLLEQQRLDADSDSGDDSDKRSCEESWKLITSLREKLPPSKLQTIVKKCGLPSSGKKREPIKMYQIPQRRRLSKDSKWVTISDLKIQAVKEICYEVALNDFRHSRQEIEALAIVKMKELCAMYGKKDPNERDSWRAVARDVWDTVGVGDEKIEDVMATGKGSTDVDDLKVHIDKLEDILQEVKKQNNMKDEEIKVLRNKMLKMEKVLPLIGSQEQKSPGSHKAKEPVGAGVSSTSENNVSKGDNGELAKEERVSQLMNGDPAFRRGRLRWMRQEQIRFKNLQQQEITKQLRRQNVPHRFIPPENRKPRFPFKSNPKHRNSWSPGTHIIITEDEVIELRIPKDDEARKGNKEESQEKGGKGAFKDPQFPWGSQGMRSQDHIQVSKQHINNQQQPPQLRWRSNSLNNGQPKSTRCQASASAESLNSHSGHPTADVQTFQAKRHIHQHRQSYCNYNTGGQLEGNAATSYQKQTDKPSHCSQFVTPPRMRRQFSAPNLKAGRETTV
Put plainly: pull-down; experiments using GST-fusion proteins (data not shown); which partner carried GST is not told.

Assay [2] concerns the target T2, GST-KIF1Bα(270–641) fusion protein (human) (UniProt O60333).
T2 sequence: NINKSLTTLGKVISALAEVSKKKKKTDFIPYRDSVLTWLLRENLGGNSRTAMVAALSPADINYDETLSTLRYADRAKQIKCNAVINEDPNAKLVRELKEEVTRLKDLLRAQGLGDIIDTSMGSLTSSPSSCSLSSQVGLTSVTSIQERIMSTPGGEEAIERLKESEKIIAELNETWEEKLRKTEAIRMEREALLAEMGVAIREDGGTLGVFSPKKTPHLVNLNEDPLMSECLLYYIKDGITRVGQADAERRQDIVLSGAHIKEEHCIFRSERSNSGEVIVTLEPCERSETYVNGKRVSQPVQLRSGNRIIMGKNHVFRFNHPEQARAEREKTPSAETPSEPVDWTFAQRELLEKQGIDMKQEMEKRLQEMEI
Put plainly: pull-down; 1 μg of GST fusion protein on glutathione-Sepharose incubated 4 hours at 4°C with lysate of 293 cells transiently overexpressing KBP or KBPΔ250–281; washed with HNTG buffer; blotted with GST-KBP antiserum; only the target purified.

Assay [3] concerns the target T3, LexA-KIF1C (amino acids 261-800) (UniProt O43896).
T3 sequence: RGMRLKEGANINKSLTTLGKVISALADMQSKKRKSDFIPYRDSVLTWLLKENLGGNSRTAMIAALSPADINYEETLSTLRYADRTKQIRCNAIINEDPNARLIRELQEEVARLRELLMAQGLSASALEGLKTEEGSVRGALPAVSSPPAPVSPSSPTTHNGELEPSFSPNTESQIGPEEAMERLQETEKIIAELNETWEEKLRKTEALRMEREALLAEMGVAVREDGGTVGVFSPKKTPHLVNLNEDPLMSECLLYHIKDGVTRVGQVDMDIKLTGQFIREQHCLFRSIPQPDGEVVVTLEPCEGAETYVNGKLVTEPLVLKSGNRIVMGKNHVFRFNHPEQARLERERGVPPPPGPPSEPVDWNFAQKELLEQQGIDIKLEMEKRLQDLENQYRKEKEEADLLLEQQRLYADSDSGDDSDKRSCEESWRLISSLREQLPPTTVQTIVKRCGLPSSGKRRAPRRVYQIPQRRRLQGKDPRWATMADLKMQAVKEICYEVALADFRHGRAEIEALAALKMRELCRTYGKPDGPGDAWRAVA
In words: two-hybrid; LexA-KIF1C fragment as bait (pBTM116) in S. cerevisiae L40; brain cDNA library fused to the GAL4 activation domain (pACT2); 5 x 10^6 transformants; His+ β-Gal+ colonies, retransformed.

Assay [4] addresses GST-KIF5B (amino acids 265–639) (human) (UniProt P33176). Put plainly: pull-down; 1 μg of GST fusion protein on glutathione-Sepharose incubated 4 hours at 4°C with lysate of 293 cells transiently overexpressing KBP or KBPΔ250–281; washed with HNTG buffer; blotted with GST-KBP antiserum; only the target purified.
The next assay addresses GST-Grb2 fusion protein (UniProt P62993). The assay is described as above.

No constants are given. Whether binding was seen depends on the method and setting. For some of these results: In cells and extracts the contact can be indirect. Some binding calls cover weakened binding; strength is not graded here. For some of these results: Tags and fused reporters may be left off the sequences shown.

B1: KBP, first 305 amino acids (domain or fragment, UniProt Q96EK5 1-305)
chain: MANVPWAEVCEKFQAALALSRVELHKNPEKEPYKSKYSARALLEEVKALLGPAPEDEDERPEAEDGPGAGDHALGLPAEVVEPEGPVAQRAVRLAVIEFHLGVNHIDTEELSAGEEHLVKCLRLLRRYRLSHDCISLCIQAQNNLGILWSEREEIETAQAYLESSEALYNQYMKEVGSPPLDPTERFLPEEEKLTEQERSKRFEKVYTHNLYYLAQVYQHLEMFEKAAHYCHSTLKRQLEHNAYHPIEWAINAATLSQFYINKLCFMEARHCLSAANVIFGQTGKISATEDTPEAEGEVPELYHQ
Turning to B1, the binding result in assay [1] is reported as “binds”.

B2: KBPΔ250–281 (protein, UniProt Q96EK5)
chain: MANVPWAEVCEKFQAALALSRVELHKNPEKEPYKSKYSARALLEEVKALLGPAPEDEDERPEAEDGPGAGDHALGLPAEVVEPEGPVAQRAVRLAVIEFHLGVNHIDTEELSAGEEHLVKCLRLLRRYRLSHDCISLCIQAQNNLGILWSEREEIETAQAYLESSEALYNQYMKEVGSPPLDPTERFLPEEEKLTEQERSKRFEKVYTHNLYYLAQVYQHLEMFEKAAHYCHSTLKRQLEHNAYHPIEWQTGKISATEDTPEAEGEVPELYHQRKGEIARCWIKYCLTLMQNAQLSMQDNIGELDLDKQSELRALRKKELDEEESIRKKAVQFGTGELCDAISAVEEKVSYLRPLDFEEARELFLLGQHYVFEAKEFFQIDGYVTDHIEVVQDHSALFKVLAFFETDMERRCKMHKRRIAMLEPLTVDLNPQYYLLVNRQIQFEIAHAYYDMMDLKVAIADRLRDPDSHIVKKINNLNKSALKYYQLFLDSLRDPNKVFPEHIGEDVLRPAMLAKFRVARLYGKIITADPKKELENLATSLEHYKFIVDYCEKHPEAAQEIEVELELSKEMVSLLPTKMERFRTKMALT
In the case of B2, in assay [2], the binding result is “no binding”.

B3: KBP mutant lacking the first 214 amino acids (domain or fragment, UniProt Q96EK5 215-621)
chain: AQVYQHLEMFEKAAHYCHSTLKRQLEHNAYHPIEWAINAATLSQFYINKLCFMEARHCLSAANVIFGQTGKISATEDTPEAEGEVPELYHQRKGEIARCWIKYCLTLMQNAQLSMQDNIGELDLDKQSELRALRKKELDEEESIRKKAVQFGTGELCDAISAVEEKVSYLRPLDFEEARELFLLGQHYVFEAKEFFQIDGYVTDHIEVVQDHSALFKVLAFFETDMERRCKMHKRRIAMLEPLTVDLNPQYYLLVNRQIQFEIAHAYYDMMDLKVAIADRLRDPDSHIVKKINNLNKSALKYYQLFLDSLRDPNKVFPEHIGEDVLRPAMLAKFRVARLYGKIITADPKKELENLATSLEHYKFIVDYCEKHPEAAQEIEVELELSKEMVSLLPTKMERFRTKMALT
Regarding B3, in assay [1], the binding result is listed as “binds”.

B4: KBP (KIF1 binding protein), GAL4 activation domain fusion from a brain cDNA library (protein, UniProt Q96EK5 1-621)
chain: MANVPWAEVCEKFQAALALSRVELHKNPEKEPYKSKYSARALLEEVKALLGPAPEDEDERPEAEDGPGAGDHALGLPAEVVEPEGPVAQRAVRLAVIEFHLGVNHIDTEELSAGEEHLVKCLRLLRRYRLSHDCISLCIQAQNNLGILWSEREEIETAQAYLESSEALYNQYMKEVGSPPLDPTERFLPEEEKLTEQERSKRFEKVYTHNLYYLAQVYQHLEMFEKAAHYCHSTLKRQLEHNAYHPIEWAINAATLSQFYINKLCFMEARHCLSAANVIFGQTGKISATEDTPEAEGEVPELYHQRKGEIARCWIKYCLTLMQNAQLSMQDNIGELDLDKQSELRALRKKELDEEESIRKKAVQFGTGELCDAISAVEEKVSYLRPLDFEEARELFLLGQHYVFEAKEFFQIDGYVTDHIEVVQDHSALFKVLAFFETDMERRCKMHKRRIAMLEPLTVDLNPQYYLLVNRQIQFEIAHAYYDMMDLKVAIADRLRDPDSHIVKKINNLNKSALKYYQLFLDSLRDPNKVFPEHIGEDVLRPAMLAKFRVARLYGKIITADPKKELENLATSLEHYKFIVDYCEKHPEAAQEIEVELELSKEMVSLLPTKMERFRTKMALT
For B4, in assay [3], the binding result is “binds”.

B5: KBP, overexpressed in 293 cells (protein, UniProt Q96EK5 1-621)
chain: MANVPWAEVCEKFQAALALSRVELHKNPEKEPYKSKYSARALLEEVKALLGPAPEDEDERPEAEDGPGAGDHALGLPAEVVEPEGPVAQRAVRLAVIEFHLGVNHIDTEELSAGEEHLVKCLRLLRRYRLSHDCISLCIQAQNNLGILWSEREEIETAQAYLESSEALYNQYMKEVGSPPLDPTERFLPEEEKLTEQERSKRFEKVYTHNLYYLAQVYQHLEMFEKAAHYCHSTLKRQLEHNAYHPIEWAINAATLSQFYINKLCFMEARHCLSAANVIFGQTGKISATEDTPEAEGEVPELYHQRKGEIARCWIKYCLTLMQNAQLSMQDNIGELDLDKQSELRALRKKELDEEESIRKKAVQFGTGELCDAISAVEEKVSYLRPLDFEEARELFLLGQHYVFEAKEFFQIDGYVTDHIEVVQDHSALFKVLAFFETDMERRCKMHKRRIAMLEPLTVDLNPQYYLLVNRQIQFEIAHAYYDMMDLKVAIADRLRDPDSHIVKKINNLNKSALKYYQLFLDSLRDPNKVFPEHIGEDVLRPAMLAKFRVARLYGKIITADPKKELENLATSLEHYKFIVDYCEKHPEAAQEIEVELELSKEMVSLLPTKMERFRTKMALT
Regarding B5, the binding entry was “no binding” in assay [4], “no binding” in the assay with GST-Grb2 fusion protein and “binds” in assay [2].
